# Out of some 310,000 compounds screened, about 2,200 (0.71%) showed an effect of 50% or more. Effects have a minus sign here. The list shows a part of the results.
# Target: human ether-à-go-go-related gene (hERG) potassium channel (human, UniProt Q12809)
# Assay: primary screen, population patch clamp on CHO cells stably expressing hERG
# Sequence of human ether-à-go-go-related gene (hERG) potassium channel (Q12809 whole entry, looked up): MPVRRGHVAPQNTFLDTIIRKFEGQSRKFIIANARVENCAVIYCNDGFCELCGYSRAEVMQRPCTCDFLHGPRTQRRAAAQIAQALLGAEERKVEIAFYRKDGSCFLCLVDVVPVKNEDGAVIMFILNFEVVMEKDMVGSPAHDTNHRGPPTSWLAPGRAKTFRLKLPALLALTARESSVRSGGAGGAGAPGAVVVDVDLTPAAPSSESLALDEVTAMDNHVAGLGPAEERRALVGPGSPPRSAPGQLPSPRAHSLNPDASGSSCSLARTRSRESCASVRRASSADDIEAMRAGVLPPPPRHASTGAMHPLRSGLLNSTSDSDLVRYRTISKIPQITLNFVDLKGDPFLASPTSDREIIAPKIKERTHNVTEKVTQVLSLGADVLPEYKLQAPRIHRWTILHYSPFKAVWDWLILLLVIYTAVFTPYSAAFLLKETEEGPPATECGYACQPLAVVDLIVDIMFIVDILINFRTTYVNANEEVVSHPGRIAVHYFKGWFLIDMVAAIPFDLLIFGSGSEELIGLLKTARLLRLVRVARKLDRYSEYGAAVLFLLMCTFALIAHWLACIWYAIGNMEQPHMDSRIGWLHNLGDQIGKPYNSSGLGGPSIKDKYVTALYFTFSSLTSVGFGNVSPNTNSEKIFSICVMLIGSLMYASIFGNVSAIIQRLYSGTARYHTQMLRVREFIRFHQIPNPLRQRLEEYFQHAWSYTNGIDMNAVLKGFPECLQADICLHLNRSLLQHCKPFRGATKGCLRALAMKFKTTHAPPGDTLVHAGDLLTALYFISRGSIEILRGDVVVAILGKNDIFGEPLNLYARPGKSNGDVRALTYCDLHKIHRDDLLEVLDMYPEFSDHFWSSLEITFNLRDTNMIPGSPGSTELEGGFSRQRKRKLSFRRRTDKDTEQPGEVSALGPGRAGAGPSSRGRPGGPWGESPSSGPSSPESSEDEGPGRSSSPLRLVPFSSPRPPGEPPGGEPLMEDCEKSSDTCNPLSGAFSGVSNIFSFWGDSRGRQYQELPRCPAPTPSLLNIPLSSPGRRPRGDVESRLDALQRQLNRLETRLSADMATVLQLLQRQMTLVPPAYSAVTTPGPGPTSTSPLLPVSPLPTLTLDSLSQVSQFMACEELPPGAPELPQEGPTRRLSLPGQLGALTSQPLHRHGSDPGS
row,SMILES,"hERG current change (%, negative = inhibition) at 1uM [%]"
1,COCn1c(COc2ccccc2)nc2ccccc21,7.09
2,COc1ccc(CN2C(=O)c3cccnc3C2=O)cc1S(=O)(=O)NCc1ccc(C)o1,12.7
3,Oc1ccccc1-c1cncn1Cc1ccccc1,8.6
4,Cc1ccc(S(=O)(=O)[O-])cc1.Cn1cc[n+](C)c1COc1ccc(C=O)cc1,13.9
5,FC(F)Oc1ccc(/C=N/n2c(Cc3ccc(Br)cc3)n[nH]c2=S)cc1,14
6,CCc1c(C)nc2ccc(Br)cc2c1SCCC#N,2.63
7,COc1ccccc1CNCC(O)(c1ccc(F)cc1)c1ccc(F)cc1,-13.7
8,COCC1CCCN(C(=O)c2cc(COc3cncc(Cl)c3)on2)C1 (stereo not drawn),18.5
9,CN(CC(=O)Nc1ccccc1Cl)C(=O)CSc1nnc(-c2ccco2)n1C,16.4
10,CC(C)(C)NC(=O)CSc1nncn1NCc1ccccc1,5.49
11,Nc1c(C(=O)N/N=C/c2cccnc2)cnn1-c1ccccc1,9.47
12,COc1ccc(N2CCN(C(=O)c3ccc4c(=O)n5c(nc4c3)CCCCC5)CC2)cc1,-14.9
13,O=C(c1cc2cc(Br)ccc2o1)N1CCCC1,7.09
14,CCCn1ncc(C(=O)N(C)C2CCCN(Cc3ccccc3F)C2)c1C (stereo not drawn),12.2
15,COc1ccc2nc(SCc3ccccc3C)nc(C)c2c1,6.15
16,CCCOc1ccc(Cn2cnc3ccccc32)cc1,1.77
17,CC(=O)CC(C)(C)n1c[n+](C)nn1.[O-][Cl+3]([O-])([O-])[O-],4.2
18,CCc1ccc2c(c1)cc(CN(C(=S)Nc1ccc(Cl)cc1)C1CC1)c1nnnn12,11.9
19,CC(C)C(C(=O)N1CCN(Cc2ccccc2)CC1)c1ccccc1.Cl (stereo not drawn),10
20,Cc1cc(C)nc(NC(=O)CSc2nc3ccccc3s2)n1,8.71
21,CC(=O)c1ccc(NC(=O)c2cccs2)cc1,14.4
22,COC(=O)Cc1ccc(NC(=S)N2CCC(Cc3ccccc3)CC2)cc1,8.98
23,COC(=O)c1cccc(NC(=O)CSc2nnc(C)o2)c1,11.3

row,SMILES,"hERG current change (%, negative = inhibition) at 1uM [%]"
1,Cc1ccc(C(=O)NNc2cc(N3CCCC3)nc(N3CCCC3)n2)cc1,-8.37
2,COc1ccc(C(=O)CSc2n[nH]c(N)n2)cc1,10.4
3,CCc1ccc(NC(=O)[C@H](C)NC(=O)C2CCN(C(=O)[C@@H](NC(=O)OC(C)(C)C)C(C)C)CC2)cc1,4.94
4,CC(=O)Nc1ccccc1OCc1nnc(-c2ccc(Cl)cc2)o1,0.667
5,CCN1C(=O)/C(=C\N2CCCCCC2)SC1=S,12.3
6,CC1CCCCC1NC(=O)CN1C(=O)CSc2cc(S(=O)(=O)N3CCCCCC3)ccc21 (stereo not drawn),7.3
7,CC(C)(C)C1CCc2onc(C(=O)Nc3cccc(O)c3)c2C1 (stereo not drawn),11.6
8,O=C(Nc1ccc(N2CCN(Cc3ccccc3)CC2)cc1)c1ccccc1[N+](=O)[O-],7.68
9,O=C(NC1=NCCS1)c1ccc(Br)s1,-13.2
10,CCc1nnc(NC(=O)Cc2cccs2)s1,2.4
11,Nc1cc(=O)[nH]c(SCC(=O)Nc2cccnc2Cl)n1,9.3
12,COc1ccc(-n2nnc3c(=O)n(CC(=O)OCc4ccccc4)cnc32)cc1,4.05
13,O=C(Nc1cc(S(=O)(=O)N2CCCCCC2)ccc1OCC(F)(F)F)C1CCC1,0.79
14,Cc1ccc(S(=O)(=O)Cc2ccc(C(=O)N3CCCC3)o2)cc1,8.97
15,CCOc1c(Br)cc(C(N)=O)cc1OCc1ccccc1,12.1
16,Cc1ccc(C(=O)NCCCNC(=O)COc2ccc(C)c(C)c2)cn1,8.8
17,COc1cc(Cl)c(C)cc1NC(=O)CC1SC(N2CCOCC2)=NC1=O (stereo not drawn),4.33
18,CCC(C)(C)NC(=O)C(c1ccc(C)o1)N(Cc1ccc2c(c1)OCO2)C(=O)c1snc(C(N)=O)c1N (stereo not drawn),7.31
19,Cc1ccc([N+](=O)[O-])cc1-c1ccc(/C=N/NC(=O)CN2CCOCC2)o1,-1.88
20,COC(=O)C1=NN(C(=O)c2ccccc2)C(C)(O)C1 (stereo not drawn),8.16
21,CCSc1nnc(NC(=O)C2(C)Cc3ccccc3C(=O)O2)s1 (stereo not drawn),0.696
22,CCn1c(/C=C/Nc2ccccc2)[n+](CC)c2cc(Cl)c(Cl)cc21.[I-],-87.2
23,CC(=O)c1cccc(NC(=O)CSc2nc(=O)n(Cc3ccccn3)c3c2CCC3)c1,17.3

row,SMILES,"hERG current change (%, negative = inhibition) at 1uM [%]"
1,CS(=O)(=O)Nc1ccccc1C(=O)Nc1ccccc1C(=O)N1CCCC1,12.2
2,COc1cccc(NC(=O)CSc2nnc(-c3cc(C)n(-c4ccccc4)c3C)o2)c1,10.4
3,CC1CCCC(C)N1CC(O)COc1c(F)cc(Br)cc1F.Cl (stereo not drawn),-20.6
4,CC1CCCCC1NC(=O)c1nn(C)c2c1CS(=O)(=O)c1ccccc1-2 (stereo not drawn),17.8
5,CCc1ccc(NC(=O)Cc2c(C(=O)O)n(C)c3ccccc23)cc1,8.88
6,O=c1[nH]c2ccccc2n1Cc1ccc(Cl)cc1,7.33
7,CN(C(=O)CCOc1ccccc1)c1c(N)n(Cc2ccccc2)c(=O)[nH]c1=O,-2.83
8,CC(C)n1nnnc1SCC(=O)Nc1ccc2c(c1)OCCO2,9.45
9,Cn1c(=O)c2c(nc(-n3ccnc3)n2C)n(C)c1=O,9.17
10,CCOC(=O)C(C)On1c(-n2nc(C)cc2C)nc2ccccc2c1=O (stereo not drawn),15.8
11,Cc1ccnc(NS(=O)(=O)c2ccc(NC(=O)/C=C/c3cccs3)cc2)n1,-1.69
12,COC(=O)C1=C(c2cccc(OC)c2OC)C[C@@H]2CC[C@H]1N2C(=O)NCc1ccccc1,7.51
13,C/C(=N/NC(=O)c1ccccc1)C(=O)O,6.05
14,C=CCNC(=S)Nc1nc2c(cc1C(=O)OCC)CCCC2,7.39
15,CCc1noc(C)c1C(=O)OCC(=O)NC(=O)c1ccccc1OC,5.75
16,CCOc1ccc(N2CSC3=C(C#N)C(c4ccco4)CC(=O)N3C2)cc1 (stereo not drawn),-4.38
17,Cc1cc(NC(=O)CSc2nnc(-c3ccc([N+](=O)[O-])cc3)o2)no1,11.2
18,Cc1cc(Cl)ccc1NC(=S)NCc1cccs1,10.6
19,CC(=O)c1ccc(NC(=O)Cn2cnc(S(=O)(=O)N3CCC(C)CC3)c2)cc1,16
20,COC(=O)c1cc(=O)n(CCc2ccc(OC)c(OC)c2)c(=Nc2ccc(F)c(Cl)c2)s1,4.37
21,COc1ccc(-c2cc(N)n(S(=O)(=O)Cc3ccccc3)n2)c(OC)c1,-4.34
22,CC(C)(CSc1ccccn1)NS(=O)(=O)c1ccc(Cl)cc1,3.44
23,Cc1ccccc1NC(=O)CN1C(=O)CSc2ccc(S(=O)(=O)N3CCCCC3)cc21,17.2

row,SMILES,"hERG current change (%, negative = inhibition) at 1uM [%]"
1,Cc1ccc(S(=O)(=O)c2nc(-c3ccco3)oc2SCC(N)=O)cc1,1.15
2,CN(C)CP(=O)(Nc1ccccc1)N(C)C (stereo not drawn),10.9
3,Cc1[nH]c(=O)[nH]c(=O)c1S(=O)(=O)Nc1ccc(F)cc1F,15.4
4,Cc1ccc(S(=O)(=O)N2CCOCC2)cc1C(=O)NC(=S)N(Cc1ccccc1)C(C)C,3.95
5,CCc1cc(C(=O)OC)c(NC(=O)CC2SC(N)=NC2=O)s1 (stereo not drawn),7.42
6,COc1ccc2c(c1)c(C(=O)CN1CCCCC1)c(C)n2C,11
7,O=C1C2C3CC(C(Br)C3Br)C2C(=O)N1c1ccccn1 (stereo not drawn),9.57
8,COc1ccc2nc(NC(=O)C(NS(=O)(=O)c3cccs3)C(C)C)sc2c1 (stereo not drawn),14
9,O=c1cc(CNc2cc(Cl)ccc2Cl)nc2sccn12,9.26
10,COc1ccc(NC(C)=O)cc1NC(=O)CN1CCN(c2ccccn2)CC1,14.3
11,NC1=NC[C@H](Cc2ccc(O)cc2)N1CCc1cc(C(F)(F)F)cc(C(F)(F)F)c1,14.2
12,CCOC(=O)C1=C(C)N=C2SC(C)C(=O)N2C1c1ccc(OC(C)=O)c(OCC)c1 (stereo not drawn),5.77
13,COCCC1CCCCN1C(=O)c1cc(COc2ccc(C)nc2)on1 (stereo not drawn),-3.12
14,O=C(O)CCc1nn2c3ccccc3nc2n(Cc2ccccc2)c1=O,18
15,O=C(CSc1nnnn1C1CCCCC1)Nc1ccc2c(c1)OCO2,16.9
16,CCOc1ccccc1C(=O)N(CCC(=O)OC)c1ccccn1,15.4
17,COc1ccc(C(=O)CCN2CCCCCC2)cc1.Cl,-4.54
18,COc1ccc(C(=O)CSc2nnnn2Cc2ccccc2)cc1,9.02
19,CSc1cccc(NC(=O)CCS(=O)(=O)c2cccc3nonc23)c1,2.83
20,CC(=O)NC(Cc1cccc(F)c1)C(=O)NC1CCN(c2nnnn2-c2ccccc2)CC1 (stereo not drawn),10.3
21,O=C(NNC(=O)c1sc2cccc(Cl)c2c1Cl)NC1CCCCC1,8.81

# Source: publication PMC4336329 (PLoS ONE, 2015)
